Measurements as given in ChEMBL document CHEMBL1201862, “PubChem BioAssay data set” (2004).

The compounds below were run on NCI-H322M (assay: NCI tumour cell line growth inhibition, 48 h).

Structure (SMILES) | GI50
CCCCCCCCCOC(=O)c1cnc(Cl)cn1 | inactive: 15.3 µM
CC(=O)CC(=O)Nc1ccc2ccccc2c1 | inactive: > 100 µM
CCOc1cc2c(cc1O)/C(=N\OC)C[C@@H]1[C@@H]2CC[C@]2(C)[C@@H](O)CC[C@@H]12 | active: 0.441 µM
O=C(O)C1CCN(Cc2oc(CO)cc(=O)c2O)C1 (stereo not drawn) | inactive: 63.2 µM
O=C(CCc1ccc(O)cc1)NCCc1ccc(O)cc1 | inactive: > 100 µM
c1ccc2c3c([nH]c2c1)C1CCCN1CC3 (stereo not drawn) | inactive: > 10 µM
O=C(CCN1CCCCC1)N1CCc2c([nH]c3ccccc23)C1c1cccnc1 (stereo not drawn) | inactive: 70.6 µM
COc1ccc(/C=C/CN(C)CCc2ccccc2)cc1OC | inactive: > 100 µM
N#CCCN(CCC#N)c1ccc(/C=C(/NC(=O)c2cc([N+](=O)[O-])ccc2Cl)C(=O)NN)cc1 | inactive: > 100 µM
O=C(N/N=C(/c1ccccc1)C(F)(F)F)c1ccncc1 | inactive: > 100 µM
CCOC(=O)NC(=O)c1cn(CCCCCOC(=O)NCCCCCCNC(=O)OCCCCCn2cc(C(=O)NC(=O)OCC)c(=O)[nH]c2=O)c(=O)[nH]c1=O | inactive: > 100 µM
Cc1nc(N)sc1C(=O)/C=C/c1ccc(/C=C/C(=O)c2sc(NC(=O)CCCCCCCCC(=O)Nc3nc(C)c(C(=O)/C=C/c4ccc(/C=C/C(=O)c5sc(N)nc5C)cc4)s3)nc2C)cc1 | inactive: > 100 µM
Cc1ccc(CSC(=N)Nc2ccccc2)cc1C | inactive: 28.2 µM
COc1ccc(C(=O)OCC2OC(n3cnc4c(=S)nc[nH]c43)C(OC(=O)c3ccc(OC)cc3)C2OC(=O)c2ccc(OC)cc2)cc1 (stereo not drawn) | inactive: 39.4 µM
COc1ccc(C2c3cc4c(cc3OC(N3CCOCC3)C2C)OCO4)cc1OC (stereo not drawn) | inactive: 11.6 µM
O=C(c1cc2c(C(F)(F)F)onc2c2ccccc12)C(F)(F)F | inactive: 8.15 µM
COC1C(N(C)C)=C(c2ccccc2)C(=O)N2CCc3ccccc3C12 (stereo not drawn) | inactive: > 100 µM
CC/C=C/C[C@H](O[Si](C)(C)C(C)(C)C)[C@H]1C[C@H]2O[C@H]([C@@H](O)C#C[Si](C)(C)C)C[C@H]2O1 | inactive: 14.4 µM
Cc1cccc(C)c1NC(=O)CCCC(=O)C1CC(=O)CCC1=O (stereo not drawn) | inactive: > 100 µM
COc1ccc(CC(N)=O)cc1OC | inactive: > 1250 µM
CC(=O)Nc1cc2ccc(=O)oc2cc1Cl | inactive: > 100 µM
O=CC(O)C(O)C(O)C(O)COC(=O)NCCCCC(=O)C(F)(F)C(F)(F)C(F)(F)C(F)(F)C(F)(F)C(F)(F)C(F)(F)F (stereo not drawn) | inactive: 53.7 µM

Structure (SMILES) | GI50
CC(C)CC1[C@@H](OCc2ccccc2)COS(=O)(=O)N1Cc1ccccc1 (stereo partly drawn) | inactive: > 100 µM
Clc1c(Cl)c(Cl)c2nn(C3CCCO3)nc2c1Cl (stereo not drawn) | inactive: > 100 µM
O=C1CCCC/C1=C\c1ccc(Cl)c(Cl)c1 | inactive: 23.4 µM
NNc1ncc2c(n1)-c1ccccc1OC2 | inactive: 44.1 µM
COC(=O)CCc1ccc2c(c1)CC1(C2)Cc2ccc(CCC(=O)OC)cc2C1 | inactive: > 100 µM
COC(=O)CC(c1ccccc1)C1(c2ccccc2)SCCS1 (stereo not drawn) | inactive: > 290 µM
CCOC(=O)C(C)c1nc2cc(C(F)(F)F)ccc2[nH]c1=O (stereo not drawn) | inactive: > 100 µM
O=P(c1ccccc1)(c1ccccc1)N1O[C@@H](c2ccccc2)C=C[C@H]1c1ccccc1 | inactive: 14.2 µM
Cn1cc(NC(=O)c2cc(NC(=O)CCCCCCCC(=O)Nc3cc(C(=O)Nc4cc(C(=O)NCCC(=N)N)n(C)c4)n(C)c3)cn2C)cc1C(=O)NCCC(=N)N | inactive: 28.4 µM
CCC(C)C(=O)OC1C(=O)OC2CC3C(C)=CC(=O)C(O)C3(C)C3C4(O)OCC23C1C(C)C4O (stereo not drawn) | active: 0.36 µM
O=C(OCC(OC(=O)c1ccccc1)C1CC(C2(O)CCCCC2)C(=O)O1)c1ccccc1 (stereo not drawn) | inactive: > 25 µM
CN(C)c1n/c(=N/c2ccc3c(c2)OCO3)ss1 | inactive: 67 µM
O=c1nc(NC(c2ccccc2)(c2ccccc2)c2ccccc2)ccn1CCNCCn1ccc(NC(c2ccccc2)(c2ccccc2)c2ccccc2)nc1=O | inactive: 10.8 µM
O=C1CSC2=NCC3(NN12)c1ccccc1-c1ccccc13 | inactive: > 10 µM
COc1ccc(C(=O)C(c2ccc(OCc3ccccc3)cc2)c2ccc(OCc3ccccc3)cc2)cc1 | inactive: > 100 µM
CC(=O)C1Cn2c(nc3ccccc32)C[Se]1 (stereo not drawn) | inactive: 6.37 µM
COc1ccc(C(CC2(c3ccc(OC)cc3)SCCCS2)NC(C)=O)cc1 (stereo not drawn) | inactive: > 100 µM
O=C(N(O)c1ccccc1Cl)C(O)(c1ccccc1)c1ccccc1 | inactive: 85.1 µM
NC(CCC(=O)c1ccccn1)C(=O)O (stereo not drawn) | inactive: > 100 µM
[O-][S+]1Nc2c(Cl)cc(Cl)c(Cl)c2S1 (stereo not drawn) | inactive: > 100 µM
c1ccc(P(=Nc2ccccc2N=P(c2ccccc2)(c2ccccc2)c2ccccc2)(c2ccccc2)c2ccccc2)cc1 | inactive: > 100 µM
CN1C(NN)=NS(=O)(=O)c2ccccc21 | inactive: > 100 µM

Structure (SMILES) | GI50
COc1cccc(CCNc2c(C#N)c3nc4ccccc4n3c3ccccc23)c1 | inactive: 1.95 µM
CSc1nc(NC2OCC(OC(C)=O)C(OC(C)=O)C2OC(C)=O)c2c(n1)OCC2=O (stereo not drawn) | inactive: > 100 µM
CCOC(=O)C(=Cc1ccc(Oc2ccccc2)cc1)C(=O)OCC | inactive: 13 µM
CC(=O)OCC1OC(SC2=NC(=O)/C(=C/c3ccccc3)S2)C(OC(C)=O)C(OC(C)=O)C1OC(C)=O (stereo not drawn) | inactive: 43.7 µM
COC(=O)C1=CO[C@@H](OC2OC(CO)C(O)C(O)C2O)[C@H]2[C@@H](C)[C@@H](O)[C@@H](O)[C@@H]12 (stereo partly drawn) | inactive: > 100 µM
COC(=O)c1ccc(C=C(C#N)C#N)cc1 | inactive: > 100 µM
CCCCCCCCCCNC1CC(OC2CC(O)(C(O)CO)Cc3c(O)c4c(c(O)c32)C(=O)c2c(OC)cccc2C4=O)OC(C)C1O (stereo not drawn) | inactive: 1.71 µM
CC(=O)N1NC(c2ccccc2)=CC(=O)/C1=C/C(=O)c1ccccc1 | inactive: 80.2 µM
CSc1ccc(/C=C2/C[N+](C)(C)C/C(=C/c3ccc(SC)cc3)C2=O)cc1 | inactive: 38.9 µM
C=CCSC[C@H](NC(=O)COc1ccccc1)C(=O)NC(C(=O)OCc1ccc([N+](=O)[O-])cc1)=C(C)C | inactive: > 100 µM
O=C(N/N=C\c1ccc(Cl)cc1)Nc1cccc2ccccc12 | inactive: 5.93 µM
COc1ccc(C2C(C#N)=C(S)N(C3OC(COC(C)=O)C(OC(C)=O)C(OC(C)=O)C3OC(C)=O)C(C)=C2C(C)=O)cc1 (stereo not drawn) | inactive: > 100 µM
CN(C)c1n/c(=N/Cc2cccs2)ss1 | inactive: > 10 µM
C/C=C/C(O)P1(=O)N(Cc2ccccc2)[C@@H]2CCCC[C@H]2N1Cc1ccccc1 (stereo partly drawn) | inactive: > 25 µM
COc1cc(CN2CCCCC2)cc2cc(C(=O)O)c(=O)oc12 | inactive: > 100 µM
COC(=O)c1c2c(cc3c1CC1(Cc4cc5c(c(C(C)=O)c4C1)CCCC5)C3)CCCC2 (stereo not drawn) | inactive: > 100 µM
CSc1ncnc2c1CCN2 | inactive: > 10 µM
Cc1c(-c2coc(-c3ccccc3)n2)c(=O)n(-c2ccccc2)n1C | inactive: > 100 µM
COC(=O)CCC(C)[C@H]1CCC2C3CC[C@@H]4CC5(CC[C@]4(C)C3C[C@H](OC(C)=O)[C@@]21C)OOC1(CCCCC1)OO5 (stereo partly drawn) | inactive: 43.8 µM
CC(=O)NC1C(OCc2ccccc2)OC(CO)C(O)C1OC(C)C(=O)NC(C)C(=O)NC(CCC(=O)NCCCCNc1c2ccccc2nc2cccc([N+](=O)[O-])c12)C(N)=O (stereo not drawn) | active: 0.0585 µM
O=c1c2ccccc2nc(-c2cccc([N+](=O)[O-])c2)n1O | inactive: 35.7 µM
COc1ccc(-c2csc(-n3c(-c4ccccc4)nc4c(Br)cc(Br)cc4c3=O)n2)cc1 | inactive: 28.2 µM

Structure (SMILES) | GI50
COc1cccc(C(C#N)NC23CC4CC(CC(C4)C2)C3)c1 (stereo not drawn) | inactive: > 100 µM
Cc1ccc2nc(Cl)c(/C=N/N3C(=O)/C(=C/c4ccc(N(C)C)cc4)N=C3c3ccccc3)cc2c1 | inactive: > 100 µM
CC(NC(=O)c1c(O)[nH]c(=S)[nH]c1=O)c1ccc([N+](=O)[O-])cc1 (stereo not drawn) | inactive: 57 µM
N#CC(C(=O)C(N)=O)c1ccccc1Cl (stereo not drawn) | inactive: > 100 µM
Nc1ncnc2c1ncn2C1OC(COP(=O)(O)CP(=O)(O)O)C(O)C1O (stereo not drawn) | inactive: > 100 µM
Cc1cc(C)n(-c2nc3ccccc3c(=O)[nH]2)n1 | inactive: 3.52 µM
Cc1cc(C)nc(NS(=O)(=O)c2ccc(NC(=O)c3cccc4cc5ccccc5nc34)cc2)n1 | inactive: 86.3 µM
COc1ccc(C(=O)C(c2ccc(OC)cc2)C2(O)C(=O)Nc3ccccc32)cc1 (stereo not drawn) | inactive: > 100 µM
COC(=O)CC1(O)C(=O)OCc2c1cc1n(c2=O)Cc2c-1nc1ccccc1c2OC (stereo not drawn) | inactive: 2.13 µM
CCCCC1(O)CC2CC1C(C)C2(C)C (stereo not drawn) | inactive: > 100 µM
C[C@]12CCC(=O)C=C1CC[C@@H]1C2CC[C@]2(C)NC(=O)C(C#N)CC12 (stereo partly drawn) | inactive: > 100 µM
O=C(O)c1ccc(NC(NC(=O)C(C(F)(F)F)C(F)(F)F)(C(F)(F)F)C(F)(F)F)cc1 | inactive: > 100 µM
O=c1c2ccccc2nc(-c2ccccc2)n1NC(=S)Nc1ccc(Cl)cc1[N+](=O)[O-] | inactive: > 100 µM
CC(C)=CCC(OC(=O)C=C(C)C)c1cc(O)c2c(c1O)C(=O)C=CC2=O (stereo not drawn) | inactive: 3.02 µM
O=C1/C(=C/c2cccs2)N=C(c2ccccc2)N1c1nc2ccccc2s1 | inactive: 69.3 µM
O=C1CC2CC3OC3[C@H]3c4cc5c(cc4C(=O)N1C23)OCO5 (stereo partly drawn) | inactive: > 100 µM
COc1ccc(/C=C\c2cc(OC)c(O[Si](C)(C)C(C)(C)C)c(OC)c2)cc1 | inactive: > 100 µM
COc1ccc(C2=C(OC(=O)N(C)C)c3cccn3-c3cc(C(F)(F)F)ccc3S2)cc1 | inactive: > 10 µM
COC1(OC)C[C@H](C)[C@@]23O[C@]24C2=CC(=O)C=CC2=N[C@H]3C#C/C=C\C#C[C@]14O | inactive: 1.19 µM
c1ccc([P+](c2ccccc2)(c2ccccc2)c2ccc([P+](c3ccccc3)(c3ccccc3)c3ccccc3)c3ccccc23)cc1 | inactive: > 100 µM
CN(C)c1ccc(N=O)c(O)c1.CN(C)c1ccc(N=O)c(O)c1.[SiH4] | inactive: 8.69 µM
Nc1ncnc2c1ncn2C1OC(CO)C2OC21 (stereo not drawn) | inactive: > 100 µM

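Assay format: 96-well plates, 48-hour exposure. The concentration for 50% growth inhibition is given as GI50.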 Active and inactive are the calls of the source. No stated cut-off is given here; in the data, active = GI50 up to about 1.1 µM and inactive = higher.
